Variants at the floor of the assay are shown more often than the library holds them.
B1: tRNA (parent)
chain: CUCUCGGUAGCCAAGUUGGUUUAAGGCGCAAGACUUUAAUUUAUCACUACGAAAUCUUGAGAUCGGGCGUUCGACUCGCCCCCGGGAGAUUUUUUCCUCGAGCAA

Variants of: B1
Test: nonsense suppression (GFP-seq) (ratio to wild type); higher = more function; SUP4oc tRNA, yeast GFP reporter sort-seq
Procedure, shortened: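 Each variant's nonsense suppression (GFPSEQ) is a cell-share-weighted bin median GFP/RFP relative to the unmutated parent tRNA. Yeast with genome-integrated tRNA variants from a ~3% random-mutation library, a galactose-driven GFP ochre reporter and RFP were grown in raffinose/galactose medium with 80 mg/L adenine, then sorted into GFP/RFP bins for Illumina sequencing. Variants needed ≥100 reads and ≥30 cells.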

CCCUCGGUAGCCAAGUUGGUUUAAGUCGCAAGACUUUAAUUUAUCACUACGAAAUCCUGAGAUCGGGCGUUCGACUCGCCCCCGGGAGAUUUUUUCCUCGAGCAA [U2C G26U U57C] and CCCUCGGUAGCCAAGUUGGUUUAAGGCGCAAAACUUUAAUUUAUCACUACGAAAUCUUGAGAUCGGGCGUUCGACUCGCCCCCAGGAGAUUUUUUCCUCGAGCAA [U2C G32A G84A] cannot be ordered by nonsense suppression: at most 0.026 for the first, at most 0.026 for the second.

CCCUCGGUAGCCAAGUUGGUUUAAGGCGCAAGACUUUAAUUUAUCACUACGAAAUCUUUAGAUCGGGCGUUCGACUCGCCCCCGGGAGAUUUUUUCCUCGAGCAA [U2C G59U] and CCCUCGGUAGCCAAGUUGGUUUAAGGCGCAAGACUUUAAUUUAUCACUACGAAAUCUUGAGAUCGAGCGUUCGACUCGCCCCCGGGAGAUUUUUUCCUCGAGCAA [U2C G66A] cannot be ordered by nonsense suppression: at most 0.026 for the first, at most 0.026 for the second.

CCCUCGGUAGCCAAGUUGGUUUAAGGCGCAAGACUUUAAUUUAUCACUACGAAAUCUUGAGAUCGGGCAUUCGACUCGCCCCCGGGAGAUUUUUUCCUCGAGCAA [U2C G69A] and CCCUCGGUAGCCAAGUUGGUUUAAGGCGCAAGACUUUAAUUUAUCACUACGAAAUCUUGAGAUCGGGCCUUCGACUCGCCCCCGGGAGAUUUUUUCCUCGAGCAA [U2C G69C] cannot be ordered by nonsense suppression: at most 0.026 for the first, at most 0.026 for the second.

CCCUCGGUAGCCAAGUUGGUUUAAGGCGCAAGACUUUAAUUUAUCACUACGAAAUCUUGAGAUCGGGCGUUCGACUCCCCCCCGGGAGAUUUUUUCCUCGAGCAA [U2C G78C] and CCCUCGGUAGCCAAGUUGGUUUAAGGCGCAAGACUUUAAUUUAUCACUACGAAAUCUUGAGAUCGGGCGUUCGACUCGCCCCCGAGAGAUUUUUUCCUCGAGCAA [U2C G85A] cannot be ordered by nonsense suppression: at most 0.026 for the first, at most 0.026 for the second.

CCCUCGGUAGCCAAGUUGGUUUAAGGCGCAAGACUUUAAUUUAUCACUACGAAAUCUUGAGAUCGGGCGUUCGACUCGCCCCCGGAAGAUUUUUUCCUCGAGCAA [U2C G86A] and CCCUCGGUAGCCAAGUUGGUUUAAGGCGCAAGACUUUAAUUUAUCACUACGAAAUCUUGAGAUCGGGCGUUCGACUCGCCCCCGGUAGAUUUUUUCCUCGAGCAA [U2C G86U] cannot be ordered by nonsense suppression: at most 0.026 for the first, at most 0.026 for the second.

CCCUCGGUAGCCAAGUUGGUUUAAGGCGCAAGACUUUAAUUUAUCACUACGAAAUCUUGAGAUCGGGCGUUCGACUCGCCCCCGGGAAAUUUUUUCCUCGAGCAA [U2C G88A] and CCCUCGGUAGCCAAGUUGGUUUAAGGCGCAAGACUUUAAUUUAUCACUACGAAAUCUUGAGAUCGGGCGUUCGACUCGCCCCCGGGAUAUUUUUUCCUCGAGCAA [U2C G88U] cannot be ordered by nonsense suppression: at most 0.026 for the first, at most 0.026 for the second.

CCCACGGUAGCCAAGUUGGUUUAAGGCGCAAGACUUUAAUUUAUCACUACGAAAUCUUGAGAUCGGGCGUUCGACUCGCCCCCGGGAGAUUUUUUCCUCGAGCAA [U2C U4A] and CCCCCGGUGGCCAAGUUGGUUUACGGCGCAAGACUUUAAUUUAUCACUACGAAAUCUUGAGAUCGGGCGUUCGACUCGCACCCGGGAGAUUUUUUCCUCGAGCAA [U2C U4C A9G A24C C80A] cannot be ordered by nonsense suppression: at most 0.026 for the first, at most 0.026 for the second.

Compared with CCCGCGGUAGCCAAGUUGGUUUAAGGCGCAAGACUUUAAUUUAUCACUACGAAAUCUUGAGAUCGGGCGUUCGACUCGCCCCCGGGAGAUUUUUUCCUCGAGCAA [U2C U4G], CCCGCGGUAGCCAAGUUGUUUUAAGCCGCAAGACUUUAAUUUAUCACUACGAAAUCAUGAGAUCGGGCGUUCUACUCGCCCCCGGGAGAUUUUUUCCUCGAGCAA [U2C U4G G19U G26C U57A G73U] is lower in nonsense suppression: 0.0326 for the first, at most 0.026 for the second.

CCCGCGGUAGCCAAGUUGGUUUAAGGCGCAAGACUUUAAUUUAUCACUACGAAAUCUUGAGAUCGGGCGUUCGACUCGCCCCCGGCAGAUUUUUUCCUCGAGCAA [U2C U4G G86C] and CCCGCGGUAGCCAAGUAGGUUUAAGGCGCAAGACUUUAAUUUAUCACUACGAAAUCUUGAGAUCGGGCGUUCGACUCGCCCCCGGGUAAUUUUUUCCUCGAGCAA [U2C U4G U17A A87U G88A] cannot be ordered by nonsense suppression: at most 0.026 for the first, at most 0.026 for the second.

CCCUCGGAAUCCAAGUUGGUUUAAGGCGGAAGACUUUAAUUUAUCACUACGAAAUCUUGAGACCGGGCGUUCGACUCGCCCCCGGGAGAUUUUUUCCUCGAGCAA [U2C U8A G10U C29G U63C] and CCCUCGGAAGCCAAGUUCGUUUAAGGCGCAAGACUUUAAUUUAUCACUACGAAAUCUUGAGAUCGGGCGUUCGACUCGCCCCCGGGAGAUUUUUUCCUCGAGCAA [U2C U8A G18C] cannot be ordered by nonsense suppression: at most 0.026 for the first, at most 0.026 for the second.

CCCUCGGGAGCCAAGUUGGUUUAAGGCGCAAGACUUUAAUUUAUCACUACGAAAUCUUGACAUCGGGCGAUCGACUCACCCCCGGGAGAUUUUUUCCUCGAGCAA [U2C U8G G61C U70A G78A] and CCCUCGGUAGCCAAGAUGCUUUAAGGCGCAAGACUUUAAUUUAUCACUACGAAAUCUUGAGUUCGGGCGUUCGACUCGUCCCCGGGAGAUUUUUUCCUCGAGCAA [U2C U16A G19C A62U C79U] cannot be ordered by nonsense suppression: at most 0.026 for the first, at most 0.026 for the second.

Going from CCCUCGGUAGCCAAGGUGGUUUAAGGCGCAAGACUUUAAUUUAUCACUACGAAAUCUUGAGAUCGGGCGUUCGACUCGCCCCCGGGAGAUUUUUUCCUCGAGCAA [U2C U16G] to CCCUCGGUAGCCAAGGUGGUUUAACGCGCAAGACUUUAAUUUAUCACUACGAAAACUUGAGAUCGGGCGUUCGACUCGCCCCCGGGAGAUUUUUUCCUCGAGCAA [U2C U16G G25C U55A], the nonsense suppression falls from 0.168 to at most 0.026.

CCCUCGGUAGCCAAGUAGGUUUAAGGCGCAAGACUUUAAUUUAUCACUACGAAAUCAUGAGAUCGGGCGUUCGACUCGCCCCCGGGAGAUUUUUUCCUCGAGCAA [U2C U17A U57A] and CCCUCGGUAGCCAAGUGGGUUUAAGGCGCAGGACUUUAAUUUAUCACUACGAACUCUUGAGAUCGGGCGUUCGACUCGCCCCCGGGAGAUUUUUUCCUCGAGCAA [U2C U17G A31G A54C] cannot be ordered by nonsense suppression: at most 0.026 for the first, at most 0.026 for the second.

Variant CCCUCGGUAGCCAAGUGGGUUUAAGGCGCAAGACUUUAAUUUAUCACUACGAAGUCUUCAGAUCGGGCGUUCGACUCGCCCCAGGGAGAUUUUUUCCUCGAGCAA [U2C U17G A54G G59C C83A] has a nonsense suppression of at most 0.026.
